# Results: PubChem BioAssay AID1346428 (National Center for Advancing Translational Sciences (NCATS), 2018)
# Among all 48,000 compounds or so, about 1,200 (2.5%) were called active. About 2% were inconclusive and are not listed.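 The calls were made as follows: active = activation of at least 60% and not above a set upper limit (about 1 call in 100 departs from these limits); inconclusive = activation of 40% to 60%, or above that upper limit; inactive = activation under 40%.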 The list shows a part of the results.
# Target: Probable G-protein coupled receptor 32 (Homo sapiens) (UniProt O75388)
# Sequence of UniProt O75388 (O75388 whole entry, looked up): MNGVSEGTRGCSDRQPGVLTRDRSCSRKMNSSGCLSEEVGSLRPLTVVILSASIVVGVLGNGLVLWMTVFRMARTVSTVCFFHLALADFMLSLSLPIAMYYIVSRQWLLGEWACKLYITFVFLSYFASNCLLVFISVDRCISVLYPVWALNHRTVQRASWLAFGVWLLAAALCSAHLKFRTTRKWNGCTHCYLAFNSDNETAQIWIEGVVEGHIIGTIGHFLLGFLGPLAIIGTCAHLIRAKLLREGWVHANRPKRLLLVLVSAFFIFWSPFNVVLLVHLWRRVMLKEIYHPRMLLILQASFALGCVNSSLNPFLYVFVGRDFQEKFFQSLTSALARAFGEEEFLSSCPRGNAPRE
# Assay: qHTS for Agonists of Human Resolvin D1 Receptor DRV1; also: 0% is about no effect
# Settings: CHO-K1 GPR32 beta-arrestin PathHunter luminescence, 90 min; at 76.9 µM; hits give high values; zero percent set by DMSO-only wells
# Summary of the method: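 Engineered CHO-K1 line co-expressing GPR32-ProLink and EA-beta-arrestin. Compound treatment lasted 90 min at 37 °C. Luminescence was recorded after 1 h with substrate at ambient temperature, relative to DMSO basal wells.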
row,Compound,activation
1,COc1ccc(CNS(=O)(=O)c2ccc3c(c2)NC(=O)C(C)C(=O)N3)cc1 (stereo not drawn),inactive: -10.4%
2,Cc1nnc(N2CCC(C(=O)N3CCCCC3)CC2)c2nn(-c3ccccc3)c(C)c12,inactive: -3.18%
3,COc1cc(NC(=O)Cn2c(=O)n(Cc3ccccc3Cl)c(=O)c3cc(OC)c(OC)cc32)cc(OC)c1,inactive: 4.47%
4,O=C(NCCc1ccccc1)c1cc(-c2cccc(Cl)c2)on1,inactive: 8.5%
5,CCc1ccc(Nc2ncnc3sc4c(c23)CCCC4)cc1,inactive: -1.69%
6,COc1ccc(CNc2n[nH]c(-c3ccco3)n2)cc1OC,inactive: -0.448%
7,COc1ccc(CCN2C(=O)N(c3ccc(F)cc3)C(=O)C2CC(=O)Nc2ccccc2)cc1OC (stereo not drawn),inactive: 10.7%
8,CCCc1c(C(=O)OCC)nnc2c(-c3ccccc3)c(C)nn12,inactive: -6.44%
9,CCCN(C(=O)c1cc2c(=O)n(CC)c3ccccc3c2s1)c1ccccc1F,inactive: 15.8%
10,COc1cc(NC(=O)c2cc3nc(-c4ccc(C)cc4)cc(C(F)(F)F)n3n2)cc(OC)c1OC,inactive: -0.0645%
11,O=C(c1ccc(Nc2nc3ccccc3n3nnnc23)cc1)N1CCN(c2ccc(F)cc2)CC1,inactive: -11.8%
12,COc1ccc(C2c3c(n(C)c4ccccc34)C(=O)N2CC(=O)Nc2ccccc2Cl)cc1 (stereo not drawn),inactive: -22.2%
13,CCc1ccc(NC(=O)c2cc(S(=O)(=O)N3CCCCC3)c[nH]2)cc1,inactive: 16.2%
14,COc1ccc(CCNC(=O)c2cnc3sc(N4CCOCC4)nn3c2=O)cc1OC,inactive: 14%
15,O=S(=O)(Nc1ccc(F)cc1F)c1ccc(Br)s1,inactive: 25.1%
16,Cc1ccc(CNC(=O)c2nnn(Cc3ccc(F)cc3)c2N)cc1,inactive: -11.8%
17,COc1ccc(OCc2ccc(-c3nc(C#N)c(N4CCC(C(N)=O)CC4)o3)o2)cc1,inactive: -6.31%
18,CC(=O)c1cccc(NC(=O)Cn2c(=O)oc3cc(S(=O)(=O)NCc4ccccc4)ccc32)c1,inactive: -3.24%
19,CCn1c2c(c(=O)n3ncc(C(=O)Nc4ccc(OC(F)(F)F)cc4)c13)CN(Cc1ccc(OC)cc1)CC2,inactive: -13.2%
20,COc1ccc(CCNC(=O)c2c[nH]n3c(=O)c(Cc4ccccc4Cl)c(C)nc23)cc1OC,inactive: 22%
21,O=C(Nc1cc(-c2nc3cc(Cl)ccc3o2)ccc1Cl)c1cccc2ccccc12,inactive: -1.25%
22,COc1ccccc1Nc1c2c(nc3ccc(NC(=O)/C=C/c4cc(OC)c(OC)c(OC)c4)cc13)CCCC2,inactive: 33%
23,CCCCCc1ccc(-c2ccc(C(=O)Oc3ccc(C(=O)OC)cc3)cc2)nc1,inactive: 21.8%
24,CC(C)c1ccc(NC(=O)C2Cc3ccccc3N2C(=O)c2ccccc2)cc1 (stereo not drawn),inactive: -20%
25,COc1ccc(CNc2nc(-c3ccc(Cl)cc3)nn2C(=O)c2ccccc2)cc1,inactive: 5.45%
26,COc1ccccc1CNC(=O)c1ccc(CSc2nc3ccncc3n2Cc2ccccc2C)cc1,inactive: -6.35%
27,Cc1ccc(S(=O)(=O)C2(C(=O)Nc3ccc(C(C)C)cc3)CC2)cc1,inactive: -18.6%

row,Compound,activation
1,Cc1ccc(-n2ncc(C(=O)N3CCN(c4ncccn4)CC3)c2C2CCN(C(=O)OC(C)(C)C)CC2)cc1,inactive: 2.45%
2,Cc1cc(C)cc(N2C(=O)CS(=O)(=O)C23C(=O)N(C)c2ccccc23)c1 (stereo not drawn),inactive: 17.5%
3,CCN(CC)C(=O)CSc1cn(CC(=O)N2CCCCCC2)c2ccccc12,inactive: -8.97%
4,Cc1ccc(NC(=O)C2CCN(c3nc4ccccc4nc3C(F)(F)F)CC2)cc1C,inactive: 0%
5,CCn1c2ccccc2c2nnc(N3CCN(c4ccc(OC)cc4)CC3)nc21,inactive: -13.1%
6,COc1ccc(-c2cc(C(F)(F)F)nc(SCCC(=O)Nc3ccc(O)cc3)n2)cc1,active: 86.2%
7,CCOC(=O)Cn1nc(C)c(NC(=O)COc2ccc(C)c(C)c2)c1C,inactive: 29.5%
8,CCCN(CCC)S(=O)(=O)c1ccc(N2CCCCS2(=O)=O)cc1,inactive: -27%
9,CCOc1ccc(-n2cc(-c3ccccc3)c3c(NCc4ccc(F)cc4)ncnc32)cc1,inactive: -30.7%
10,CCSc1nc2c([nH]c3ccccc32)c(=O)n1-c1cccc(OC)c1,inactive: 26.9%
11,CCOc1ccc(-n2nc3ccc(NC(=O)c4cccc(F)c4)cc3n2)cc1,inactive: -6.09%
12,COc1ccc(Cl)cc1S(=O)(=O)N1CCN(CC(=O)Nc2ccccc2C(F)(F)F)CC1,inactive: -6.78%
13,COc1cccc(NC(=O)Cn2c(=O)ccc3cc(S(=O)(=O)N4CCC(C)CC4)ccc32)c1,inactive: 0.145%
14,CCOc1ccc(-c2nnc(SCC(=O)NC(C)CC)nc2-c2ccc(OCC)c(OC)c2)cc1OC (stereo not drawn),inactive: -12.5%
15,COc1ccc(-c2nc3ccccc3o2)cc1NC(=O)c1ccc(-c2ccc(Br)cc2)o1,inactive: -6.99%
16,Cc1nn(C)c(C)c1CCNC(=O)Nc1cccc(Cl)c1C,inactive: 24%
17,COc1ccc(Cn2cc(C(=O)c3ccc(F)cc3)c(=O)c3cc4c(cc32)OCCO4)cc1,inactive: 27.3%
18,COc1cc(C(=O)Nc2cccc(OCc3cc(=O)n4cc(C)sc4n3)c2)cc(OC)c1OC,inactive: 3.5%
19,CC(=O)Nc1nonc1-c1nnc(SCC(=O)Nc2cccc(C)c2C)n1-c1ccccc1,inactive: -12.4%
20,CCCCc1nn2c(=O)cc(COC(=O)c3ccco3)nc2s1,inactive: -15.2%
21,CCCCNc1ccc(-c2nc(-c3ccncc3)no2)cc1[N+](=O)[O-],inactive: 9.46%
22,CC1CCN(C(=O)Cn2cc(SCC(=O)Nc3ccccc3C(F)(F)F)c3ccccc32)CC1,inactive: -14%
23,Cc1cccc(NC(=O)C2CCCN(S(=O)(=O)c3c(C)n[nH]c3C)C2)c1 (stereo not drawn),inactive: 13.4%
24,CCC(C(=O)Nc1ccccc1)n1nc(-c2cc(C)ccc2C)ccc1=O (stereo not drawn),inactive: -16.4%
25,CCOc1ccc(-n2c(=O)c3c(C)c(C)sc3n(CC(=O)Nc3ccc(CC)cc3)c2=O)cc1,inactive: -5.61%
26,Cc1ccccc1Nc1c(-c2cccnc2)nc2cccc(C)n12,inactive: 0.297%
